Data as given in a compilation of properties of binary mixtures (doi:10.1016/j.seppur.2020.117103).
Some of these densities may be calculated back from excess volumes.

Assay: xn = mol fraction of the nth substance listed
Details: 298.15 K, 100 kPa

**Q.** What does the source list for `CC[n+]1ccn(C)c1.N#C[S-]` + CCO?
**A.** mass density (x2 = 0): 1115.1 kg/m3; mass density (x2 = 0.2134): 1088.9 kg/m3; mass density (x2 = 0.345): 1067.7 kg/m3; mass density (x2 = 0.3836): 1060.5 kg/m3; mass density (x2 = 0.6181): 1003.1 kg/m3; mass density (x2 = 0.6948): 975.7 kg/m3; mass density (x2 = 0.8944): 873.3 kg/m3

**Q.** For `CCO` + CC[n+]1ccn(C)c1.N#C[S-], which mass density (x1 = 1) is on record?
**A.** 784.6 kg/m3

**Q.** With `CO` + CC[n+]1ccn(C)c1.N#C[S-] as the molecule, how does the mass density (x1 = 1) read?
**A.** 786.8 kg/m3

**Q.** With `CC[n+]1ccn(C)c1.N#C[S-]` + CO as the molecule, how does the mass density (x2 = 0) read?
**A.** 1115.1 kg/m3

**Q.** And the mass density (x2 = 0.2018)?
**A.** 1098.5 kg/m3

**Q.** What about the mass density (x2 = 0.3185) of the same molecule?
**A.** 1086.2 kg/m3

**Q.** What about the mass density (x2 = 0.4076) of the same molecule?
**A.** 1073.5 kg/m3

**Q.** What about the mass density (x2 = 0.5037) of the same molecule?
**A.** 1057 kg/m3

**Q.** And the mass density (x2 = 0.5936)?
**A.** 1037.4 kg/m3

**Q.** What about the mass density (x2 = 0.6923) of the same molecule?
**A.** 1009.1 kg/m3

**Q.** What about the mass density (x2 = 0.805) of the same molecule?
**A.** 962.6 kg/m3

**Q.** And the mass density (x2 = 0.9014)?
**A.** 899.3 kg/m3
